Assay [1] has as its target His6-Prp43 (S. cerevisiae) (UniProt P53131). The assay is described as follows: co-purification after co-expression (Ni-NTA, SEC); proteins co-expressed in E. coli BL21(DE3)*, Ni-NTA purification of the His6-tagged protein, RNase A, Superose 6 Increase SEC in 50 mM Hepes pH 7.5, 200 mM NaCl, 5 mM MgCl2, 2 mM DTT; the complexes were used for ATPase assays.
Assay [2] has the same target. The assay is described as follows: cryo-EM structure; purified Prp43:Pxr1^GM complex, 0.2 mg/ml with 5 mM ATPγS, 50 mM Hepes pH 7.5, 200 mM NaCl, 5 mM MgCl2, 2 mM DTT; ADP seen in the map; both purified.
In assay [3] the target is Pxr1^GM (yeast two-hybrid fusion) (S. cerevisiae) (UniProt P53335). The assay is described as follows: two-hybrid; LexA DNA-binding domain and GAL4 activation domain fusions in the reporter strain NMY32; HIS3 reporter, growth on SD-His, with 3-AT where indicated, 30 °C.
The target of assay [4] is Prp43 (yeast two-hybrid fusion) (S. cerevisiae) (UniProt P53131). Described as above.

Amino acid sequences for entries named in this document (tags omitted).
UniProt P53131: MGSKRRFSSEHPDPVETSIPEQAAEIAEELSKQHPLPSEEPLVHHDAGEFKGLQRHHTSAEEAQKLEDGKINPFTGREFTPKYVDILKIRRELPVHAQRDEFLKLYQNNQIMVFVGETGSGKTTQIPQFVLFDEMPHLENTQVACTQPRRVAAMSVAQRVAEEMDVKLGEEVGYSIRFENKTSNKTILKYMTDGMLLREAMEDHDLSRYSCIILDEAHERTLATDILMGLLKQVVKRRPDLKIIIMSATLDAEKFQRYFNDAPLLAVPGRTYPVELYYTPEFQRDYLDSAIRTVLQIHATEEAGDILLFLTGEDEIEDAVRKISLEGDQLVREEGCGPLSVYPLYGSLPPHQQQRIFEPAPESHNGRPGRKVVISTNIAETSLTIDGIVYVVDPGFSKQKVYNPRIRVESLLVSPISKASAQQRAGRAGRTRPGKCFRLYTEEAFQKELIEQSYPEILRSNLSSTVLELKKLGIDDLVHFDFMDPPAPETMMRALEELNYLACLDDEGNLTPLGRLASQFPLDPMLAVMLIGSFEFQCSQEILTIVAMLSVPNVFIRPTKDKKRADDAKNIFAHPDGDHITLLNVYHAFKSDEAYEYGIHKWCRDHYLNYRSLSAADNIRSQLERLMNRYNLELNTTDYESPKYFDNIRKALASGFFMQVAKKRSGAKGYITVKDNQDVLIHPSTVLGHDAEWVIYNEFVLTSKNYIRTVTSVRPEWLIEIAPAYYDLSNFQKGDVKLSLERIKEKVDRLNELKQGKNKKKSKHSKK

These are yes or no findings as the source states them, for the method shown. Some binding calls cover weakened binding; strength is not graded here. For part of these data: Sequences can lack the tags named with a protein.

B1: Pxr1^GM (recombinant, co-expressed with Prp43) (domain or fragment, UniProt P53335 1-137)
chain: MGLAATRTKQRFGLDPRNTAWSNDTSRFGHQFLEKFGWKPGMGLGLSPMNSNTSHIKVSIKDDNVGLGAKLKRKDKKDEFDNGECAGLDVFQRILGRLNGKESKISEELDTQRKQKIIDGKWGIHFVKGEVLASTWD
As to B1, the binding result in assay [1] and in assay [2] was “binds” throughout.

B2: Pxr1^GM (yeast two-hybrid fusion) (domain or fragment, UniProt P53335 1-137)
chain: MGLAATRTKQRFGLDPRNTAWSNDTSRFGHQFLEKFGWKPGMGLGLSPMNSNTSHIKVSIKDDNVGLGAKLKRKDKKDEFDNGECAGLDVFQRILGRLNGKESKISEELDTQRKQKIIDGKWGIHFVKGEVLASTWD
Take B2: the binding result in assay [3] is given as “no binding”.

B3: Pxr1^GM-L33E (domain or fragment, UniProt P53335 1-137)
chain: MGLAATRTKQRFGLDPRNTAWSNDTSRFGHQFEEKFGWKPGMGLGLSPMNSNTSHIKVSIKDDNVGLGAKLKRKDKKDEFDNGECAGLDVFQRILGRLNGKESKISEELDTQRKQKIIDGKWGIHFVKGEVLASTWD
On to B3, for which, in assay [1], the binding entry is “binds”.

B4: Pxr1^F126A (yeast two-hybrid fusion) (protein, UniProt P53335 1-271)
chain: MGLAATRTKQRFGLDPRNTAWSNDTSRFGHQFLEKFGWKPGMGLGLSPMNSNTSHIKVSIKDDNVGLGAKLKRKDKKDEFDNGECAGLDVFQRILGRLNGKESKISEELDTQRKQKIIDGKWGIHAVKGEVLASTWDPKTHKLRNYSNAKKRKREGDDSEDEDDDDKEDKDSDKKKHKKHKKHKKDKKKDKKDKKEHKKHKKEEKRLKKEKRAEKTKETKKTSKLKSSESASNIPDAVNTRLSVRSKWIKQKRAALMDSKALNEIFMITND
As to B4, the binding entry in assay [4] is “binds”.

B5: Pxr1 (yeast two-hybrid fusion) (protein, UniProt P53335 1-271)
chain: MGLAATRTKQRFGLDPRNTAWSNDTSRFGHQFLEKFGWKPGMGLGLSPMNSNTSHIKVSIKDDNVGLGAKLKRKDKKDEFDNGECAGLDVFQRILGRLNGKESKISEELDTQRKQKIIDGKWGIHFVKGEVLASTWDPKTHKLRNYSNAKKRKREGDDSEDEDDDDKEDKDSDKKKHKKHKKHKKDKKKDKKDKKEHKKHKKEEKRLKKEKRAEKTKETKKTSKLKSSESASNIPDAVNTRLSVRSKWIKQKRAALMDSKALNEIFMITND
As for B5, the binding entry in assay [4] is given as “binds”.

The values are drawn from PMC11584650, “An inhibitory segment within G-patch activators tunes Prp43-ATPase activity during ribosome assembly” (Nature Communications, 2024).
